Measured values reported in PubChem BioAssay AID1347417 (National Center for Advancing Translational Sciences (NCATS), 2020).
In all, about 120,000 compounds went through this assay and about 5,300 (4.4%) were called active. Inconclusive results, whose numbers are uncertain, are shown with a selection of clear calls. The call rests on the fitted dose curve; in most records, active means well fitted inhibition curve with a large enough effect; inconclusive means small, poorly fitted or top-dose-only effect; inactive means no such curve, though single readings can be large or run the other way. A potency beside an inconclusive call is a rough fit, not a confirmed value.

Experiment: qHTS Primary assay for Inhibitors of Plasmodium falciparum Dd2 growth in vitro; further: nearly all actives have a fitted effect of over 65% in size
Conditions: P. falciparum Dd2 growth, SYBR Green, 72 h; series mostly up to 28.9 µM
Summary of the method: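 Readout: SYBR Green fluorescence, 485 nm excitation, 535 nm emission, after ~16 h lysis at 37C. Before that, Dd2-infected red cells (2.5% hematocrit) grew 72 h with compound, 29 uM top final concentration.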
Potency means the concentration at half of the fitted maximal effect; tags describe the fitted curve by direction and shape.

SMILES | Potency
CN(C)[C@@H]1CN(C(=O)c2cccs2)CC[C@@H]1CO | inconclusive: 1 µM [inhibitor, partial curve, poor fit]
COc1cccc(-c2noc(CCCc3nc(-c4cccnn4)no3)n2)c1 | inconclusive: 1.58 µM [inhibitor, full curve, poor fit]
O=C(O)C1CCc2nnc(C3CCCN(C(=O)Cc4ccccc4)C3)n21 (centres undefined) | inactive
COc1ccccc1CNC(=O)c1nn(-c2ccc(C)cc2)c(=O)c2c1c1ccccc1n2C | inconclusive: 8.91 µM [inhibitor, single point]
Cc1noc(C)c1CC(=O)N1CCN(C(=O)N(C)C)[C@@H]2CS(=O)(=O)C[C@@H]21 | inactive
COc1ccc(-c2cnc(NCc3ccc(C)cc3)n2C)cc1 | inconclusive: 7.94 µM [inhibitor, single point]
O=C(CSc1nc(-c2ccccc2)cc(=O)[nH]1)Nc1ccccc1F | inactive
CC1=C(C(=O)Nc2ccc(C)c(C)c2)C2(CCCCCC2)OC1=O | inconclusive: 2.51 µM [inhibitor, partial curve, poor fit]
O=C(CN1C(=O)NC2(CCOCC2)C1=O)NCc1ccc(Cl)cc1 | inactive
CCC(C)NC(=O)c1sc2nc(C)c(C(=O)Nc3ccc(C)cc3C)c(-c3ccc(Br)cc3)c2c1N (centres undefined) | inconclusive: 17.8 µM [inhibitor, single point]
COc1ccc2nc3n(c2c1)[C@@H](CNCc1ccc(C(F)(F)F)cc1)COC3 | inconclusive: 31.6 µM [inhibitor, single point]
CC(C)c1ccc(C(=O)N2CCC(C3CCNC3)CC2)cc1 (centres undefined) | inconclusive: 20 µM [inhibitor, single point]
COCCN1CCCCCC(O)c2cc(C(=O)N3CCOCC3)ccc21 (centres undefined) | inactive
CNC(=O)N1CCC(C2CCN(C(=O)C3CCCCCC3)C2)CC1 (centres undefined) | inconclusive: 11.2 µM [inhibitor, partial curve, poor fit]
CS(=O)(=O)N1CCC2(CCC(=O)N(CC3CC3)CC2)CC1 | inactive
O=C(NCc1nc(-c2ccncc2)n[nH]1)[C@H]1CCC[C@H](O)C1 | inactive
COc1ccc(CN2C(=O)COC[C@@H]2[C@H](O)c2ccc(NC(=O)c3ccc(C(C)(C)C)cc3)cc2)cc1 | inconclusive: 1.41 µM [inhibitor, full curve, poor fit]
COc1ccc(-c2nc3ccc(C(=O)NCc4ccccc4)cc3nc2-c2ccc(OC)cc2)cc1 | inconclusive: 17.8 µM [inhibitor, single point]
Cc1ccc(CC(=O)NCc2nnc3cc(-c4nc(C5CC5)no4)ccn23)cc1 | inconclusive: 0.251 µM [inhibitor, partial curve, poor fit]
